# This is one part of the list.
# Assays:
# Test in all cases: glycan array binding signal (z-score within array); higher = stronger binding
# Conditions in all cases: glycan notation: IUPAC condensed, linker removed
# [1] = target: Kdn(a2-3)Gal(b1-4)Glc
# Outline: (§1)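 Glycan array binding is given as a within-array Z-score, which can be read as non-binding when negative. The arrays, 3228 of them, came from the Consortium for Functional Glycomics database and were retained only where the protein sequence was available. Z-scores were averaged across arrays of the same protein sequence at different concentrations or buffers and across linkers.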
# [2] = target: Kdn(a2-3)Gal(b1-4)GlcNAc
# Outline: as §1
# [3] = target: Kdn(a2-3)Gal(b1-4)[Fuc(a1-3)]GlcNAc
# Outline: as §1
# [4] = target: Kdn(a2-6)Gal(b1-4)GlcNAc
# Outline: as §1
# [5] = target: Man(a1-2)Man(a1-2)Man(a1-3)Man
# Outline: as §1
# [6] = target: Man(a1-2)Man(a1-2)Man(a1-6)[Man(a1-3)]Man
# Outline: as §1
# [7] = target: Man(a1-2)Man(a1-3)Man
# Outline: as §1
# [8] = target: Man(a1-2)Man(a1-3)[Man(a1-2)Man(a1-6)]Man
# Outline: as §1
# [9] = target: Man(a1-2)Man(a1-3)[Man(a1-2)Man(a1-6)]Man(a1-6)[Man(a1-2)Man(a1-2)Man(a1-3)]Man
# Outline: as §1
# [10] = target: Man(a1-2)Man(a1-3)[Man(a1-2)Man(a1-6)]Man(a1-6)[Man(a1-2)Man(a1-2)Man(a1-3)]Man(b1-4)GlcNAc(b1-4)GlcNAc
# Outline: as §1
# [11] = target: Man(a1-2)Man(a1-3)[Man(a1-6)]Man(a1-6)[Man(a1-2)Man(a1-3)]Man(b1-4)GlcNAc(b1-4)GlcNAc
# Outline: as §1
# [12] = target: Man(a1-2)Man(a1-6)[Man(a1-3)]Man(a1-6)[Man(a1-2)Man(a1-2)Man(a1-3)]Man
# Outline: as §1
# [13] = target: Man(a1-2)Man(a1-6)[Man(a1-3)]Man(a1-6)[Man(a1-2)Man(a1-2)Man(a1-3)]Man(b1-4)GlcNAc(b1-4)GlcNAc
# Outline: as §1
# [14] = target: Man(a1-3)[Man(a1-6)]Man
# Outline: as §1
# [15] = target: Man(a1-3)[Man(a1-6)]Man(a1-6)[Man(a1-2)Man(a1-3)]Man(b1-4)GlcNAc(b1-4)GlcNAc
# Outline: as §1
# [16] = target: Man(a1-3)[Man(a1-6)]Man(a1-6)[Man(a1-3)]Man
# Outline: as §1
# [17] = target: Man(a1-3)[Man(a1-6)]Man(a1-6)[Man(a1-3)]Man(b1-4)GlcNAc(b1-4)GlcNAc
# Outline: as §1
# [18] = target: Man(a1-3)[Man(a1-6)]Man(b1-4)GlcNAc(b1-4)GlcNAc
# Outline: as §1
# [19] = target: Man(a1-3)[Man(a1-6)]Man(b1-4)GlcNAc(b1-4)[Fuc(a1-6)]GlcNAc
# Outline: as §1
# [20] = target: Man(a1-6)Man
# Outline: as §1
# [21] = target: Man(b1-4)GlcNAc
# Outline: as §1
# [22] = target: MurNAc(b1-4)GlcNAc
# Outline: as §1
# [23] = target: Neu5Ac(a2-3)Gal
# Outline: as §1
# [24] = target: Neu5Ac(a2-3)Gal(b1-3)GalNAc
# Outline: as §1
# [25] = target: Neu5Ac(a2-3)Gal(b1-3)GalNAc(b1-3)Gal(a1-4)Gal(b1-4)Glc
# Outline: as §1
# [26] = target: Neu5Ac(a2-3)Gal(b1-3)GalNAc(b1-4)[Neu5Ac(a2-3)]Gal(b1-4)Glc
# Outline: as §1
# [27] = target: Neu5Ac(a2-3)Gal(b1-3)GalNAc(b1-4)[Neu5Ac(a2-8)Neu5Ac(a2-3)]Gal(b1-4)Glc
# Outline: as §1
# [28] = target: Neu5Ac(a2-3)Gal(b1-3)GalNAc6S
# Outline: as §1
# [29] = target: Neu5Ac(a2-3)Gal(b1-3)GlcNAc
# Outline: as §1
# [30] = target: Neu5Ac(a2-3)Gal(b1-3)GlcNAc(b1-2)Man
# Outline: as §1
# [31] = target: Neu5Ac(a2-3)Gal(b1-3)GlcNAc(b1-2)Man(a1-3)[GlcNAc(b1-4)][Neu5Ac(a2-3)Gal(b1-3)GlcNAc(b1-2)Man(a1-6)]Man(b1-4)GlcNAc(b1-4)GlcNAc
# Outline: as §1
# [32] = target: Neu5Ac(a2-3)Gal(b1-3)GlcNAc(b1-2)Man(a1-3)[Neu5Ac(a2-3)Gal(b1-3)GlcNAc(b1-2)Man(a1-6)]Man(b1-4)GlcNAc(b1-4)GlcNAc
# Outline: as §1
# [33] = target: Neu5Ac(a2-3)Gal(b1-3)GlcNAc(b1-3)Gal(b1-3)GlcNAc
# Outline: as §1
# [34] = target: Neu5Ac(a2-3)Gal(b1-3)GlcNAc(b1-3)Gal(b1-4)GlcNAc
# Outline: as §1
# [35] = target: Neu5Ac(a2-3)Gal(b1-3)GlcNAc(b1-3)GalNAc
# Outline: as §1
# [36] = target: Neu5Ac(a2-3)Gal(b1-3)GlcNAc(b1-4)Gal(b1-4)Glc
# Outline: as §1
# [37] = target: Neu5Ac(a2-3)Gal(b1-3)GlcNAc(b1-6)GalNAc
# Outline: as §1
# [38] = target: Neu5Ac(a2-3)Gal(b1-3)GlcNAc6S
# Outline: as §1
binder,measurement,setting,value
Cohesin-hDC-ASGPR (Homo sapiens) (protein) LDDLDAVRIKVDTVNAKPGDTVRIPVRFSGIPSKGIANCDFVYSYDPNVLEIIEIEPGDIIVDPNPDKSFDTAVYPDRKIIVFLFAEDSGTGAYAITKDGVFATIVAKVKEGAPNGLSVIKFVEVGGFANNDLVEQKTQFFDGGANVGDTTEPATPTTPVTTPTTTDDLDAASQNSKFQRDLVTLRTDFSNFTSNTVAEIQALTSQGSSLEETIASLKAEVEGFKQERQAGVSELQEHTTQKAHLGHCPHCPSVCVPVHSEMLLRVQQLVQDLKKLTCQVATLNNNASTEGTCCPVNWVEHQDSCYWFSHSGMSWAEAEKYCQLKNAHLVVINSREEQNFVQKYLGSAYTWMGLSDPEGAWKWVDGTDYATGFQNWKPGQPDDWQGHGLGGGEDCAHFHPDGRWNDDVCQRPYHWVCEAGLGQTSQESHHHHHH,glycan array binding signal (z-score),[1],-0.499
same,glycan array binding signal (z-score),[2],-0.517
same,glycan array binding signal (z-score),[3],-0.485
same,glycan array binding signal (z-score),[4],-0.512
same,glycan array binding signal (z-score),[5],-0.457
same,glycan array binding signal (z-score),[6],-0.495
same,glycan array binding signal (z-score),[7],-0.472
same,glycan array binding signal (z-score),[8],-0.502
same,glycan array binding signal (z-score),[9],-0.512
same,glycan array binding signal (z-score),[10],-0.402
same,glycan array binding signal (z-score),[11],-0.5
same,glycan array binding signal (z-score),[12],-0.48
same,glycan array binding signal (z-score),[13],-0.463
same,glycan array binding signal (z-score),[14],-0.405
same,glycan array binding signal (z-score),[15],-0.49
same,glycan array binding signal (z-score),[16],-0.43
same,glycan array binding signal (z-score),[17],-0.509
same,glycan array binding signal (z-score),[18],-0.389
same,glycan array binding signal (z-score),[19],-0.505
same,glycan array binding signal (z-score),[20],0.057
same,glycan array binding signal (z-score),[21],-0.482
same,glycan array binding signal (z-score),[22],-0.48
same,glycan array binding signal (z-score),[23],-0.335
same,glycan array binding signal (z-score),[24],-0.494
same,glycan array binding signal (z-score),[25],-0.454
same,glycan array binding signal (z-score),[26],-0.404
same,glycan array binding signal (z-score),[27],-0.364
same,glycan array binding signal (z-score),[28],0.47
same,glycan array binding signal (z-score),[29],-0.508
same,glycan array binding signal (z-score),[30],-0.472
same,glycan array binding signal (z-score),[31],-0.478
same,glycan array binding signal (z-score),[32],-0.333
same,glycan array binding signal (z-score),[33],-0.483
same,glycan array binding signal (z-score),[34],-0.511
same,glycan array binding signal (z-score),[35],-0.397
same,glycan array binding signal (z-score),[36],-0.483
same,glycan array binding signal (z-score),[37],2.67
same,glycan array binding signal (z-score),[38],-0.403
